# From the supplement of paper PMC8728848
# The list shows a part of the results.
# Columns and labels:
# Assay in all cases: glycan array binding signal (z-score within array); higher = stronger binding
# Conditions in all cases: glycan notation: IUPAC condensed, linker removed
# [1] = target: GlcNAc(b1-3)Gal(b1-4)GlcNAc(b1-2)[GlcNAc(b1-3)Gal(b1-4)GlcNAc(b1-6)]Man(a1-6)[GlcNAc(b1-3)Gal(b1-4)GlcNAc(b1-2)Man(a1-3)]Man(b1-4)GlcNAc(b1-4)GlcNAc
# Outline: (§1)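 Glycan array data came from 3228 arrays in the Consortium for Functional Glycomics database, and only arrays with an available protein sequence were kept. Glycan names were put into IUPAC-condensed notation, and columns mapping to the same glycan were averaged. The binding signal is a within-array Z-score, averaged across arrays of one protein sequence run at different concentrations or buffers and across linkers. A negative Z-score can be read as non-binding.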
# [2] = target: GlcNAc(b1-3)Gal(b1-4)GlcNAc(b1-3)Gal(b1-4)GlcNAc
# Outline: as §1
# [3] = target: GlcNAc(b1-3)Gal(b1-4)GlcNAc(b1-3)Gal(b1-4)GlcNAc(b1-2)Man(a1-3)[GlcNAc(b1-3)Gal(b1-4)GlcNAc(b1-3)Gal(b1-4)GlcNAc(b1-2)Man(a1-6)]Man(b1-4)GlcNAc(b1-4)GlcNAc
# Outline: as §1
# [4] = target: GlcNAc(b1-3)Gal(b1-4)GlcNAc(b1-3)Gal(b1-4)GlcNAc(b1-2)Man(a1-3)[GlcNAc(b1-3)Gal(b1-4)GlcNAc(b1-3)Gal(b1-4)GlcNAc(b1-2)Man(a1-6)]Man(b1-4)GlcNAc(b1-4)[Fuc(a1-6)]GlcNAc
# Outline: as §1
# [5] = target: GlcNAc(b1-3)Gal(b1-4)GlcNAc(b1-3)Gal(b1-4)GlcNAc(b1-2)[GlcNAc(b1-3)Gal(b1-4)GlcNAc(b1-3)Gal(b1-4)GlcNAc(b1-6)]Man(a1-6)[GlcNAc(b1-3)Gal(b1-4)GlcNAc(b1-3)Gal(b1-4)GlcNAc(b1-2)Man(a1-3)]Man(b1-4)GlcNAc(b1-4)[Fuc(a1-6)]GlcNAc
# Outline: as §1
# [6] = target: GlcNAc(b1-3)Gal(b1-4)GlcNAc(b1-3)Gal(b1-4)GlcNAc(b1-3)Gal(b1-4)GlcNAc(b1-2)Man(a1-3)[GlcNAc(b1-3)Gal(b1-4)GlcNAc(b1-3)Gal(b1-4)GlcNAc(b1-3)Gal(b1-4)GlcNAc(b1-2)Man(a1-6)]Man(b1-4)GlcNAc(b1-4)GlcNAc
# Outline: as §1
# [7] = target: GlcNAc(b1-3)Gal(b1-4)GlcNAc(b1-3)Gal(b1-4)GlcNAc(b1-3)Gal(b1-4)GlcNAc(b1-2)Man(a1-3)[GlcNAc(b1-3)Gal(b1-4)GlcNAc(b1-3)Gal(b1-4)GlcNAc(b1-3)Gal(b1-4)GlcNAc(b1-2)Man(a1-6)]Man(b1-4)GlcNAc(b1-4)[Fuc(a1-6)]GlcNAc
# Outline: as §1
# [8] = target: GlcNAc(b1-3)Gal(b1-4)GlcNAc(b1-3)Gal(b1-4)GlcNAc(b1-3)Gal(b1-4)GlcNAc(b1-2)[GlcNAc(b1-3)Gal(b1-4)GlcNAc(b1-3)Gal(b1-4)GlcNAc(b1-3)Gal(b1-4)GlcNAc(b1-6)]Man(a1-6)[GlcNAc(b1-3)Gal(b1-4)GlcNAc(b1-3)Gal(b1-4)GlcNAc(b1-3)Gal(b1-4)GlcNAc(b1-2)Man(a1-3)]Man(b1-4)GlcNAc(b1-4)[Fuc(a1-6)]GlcNAc
# Outline: as §1
# [9] = target: GlcNAc(b1-3)Gal(b1-4)GlcNAc(b1-3)Gal(b1-4)GlcNAc(b1-3)Gal(b1-4)GlcNAc(b1-3)Gal(b1-4)GlcNAc(b1-2)Man(a1-3)[GlcNAc(b1-3)Gal(b1-4)GlcNAc(b1-3)Gal(b1-4)GlcNAc(b1-3)Gal(b1-4)GlcNAc(b1-3)Gal(b1-4)GlcNAc(b1-2)Man(a1-6)]Man(b1-4)GlcNAc(b1-4)GlcNAc
# Outline: as §1
# [10] = target: GlcNAc(b1-3)Gal(b1-4)GlcNAc(b1-3)Gal(b1-4)GlcNAc(b1-3)Gal(b1-4)GlcNAc(b1-3)Gal(b1-4)GlcNAc(b1-2)Man(a1-3)[GlcNAc(b1-3)Gal(b1-4)GlcNAc(b1-3)Gal(b1-4)GlcNAc(b1-3)Gal(b1-4)GlcNAc(b1-3)Gal(b1-4)GlcNAc(b1-2)Man(a1-6)]Man(b1-4)GlcNAc(b1-4)[Fuc(a1-6)]GlcNAc
# Outline: as §1
# [11] = target: GlcNAc(b1-3)Gal(b1-4)GlcNAc(b1-3)Gal(b1-4)GlcNAc(b1-3)Gal(b1-4)GlcNAc(b1-3)Gal(b1-4)GlcNAc(b1-2)[GlcNAc(b1-3)Gal(b1-4)GlcNAc(b1-3)Gal(b1-4)GlcNAc(b1-3)Gal(b1-4)GlcNAc(b1-3)Gal(b1-4)GlcNAc(b1-6)]Man(a1-6)[GlcNAc(b1-3)Gal(b1-4)GlcNAc(b1-3)Gal(b1-4)GlcNAc(b1-3)Gal(b1-4)GlcNAc(b1-3)Gal(b1-4)GlcNAc(b1-2)Man(a1-3)]Man(b1-4)GlcNAc(b1-4)[Fuc(a1-6)]GlcNAc
# Outline: as §1
# [12] = target: GlcNAc(b1-3)Gal(b1-4)GlcNAc(b1-3)Gal(b1-4)GlcNAc(b1-3)GalNAc
# Outline: as §1
# [13] = target: GlcNAc(b1-3)Gal(b1-4)GlcNAc(b1-3)GalNAc
# Outline: as §1
# [14] = target: GlcNAc(b1-3)Gal(b1-4)GlcNAc(b1-3)[GlcNAc(b1-3)Gal(b1-4)GlcNAc(b1-3)]GalNAc
# Outline: as §1
# [15] = target: GlcNAc(b1-3)Gal(b1-4)GlcNAc(b1-6)[Gal(b1-3)]GalNAc
# Outline: as §1
# [16] = target: GlcNAc(b1-3)Gal(b1-4)GlcNAc(b1-6)[GlcNAc(b1-3)Gal(b1-3)]GalNAc
# Outline: as §1
# [17] = target: GlcNAc(b1-3)Gal(b1-4)GlcNAc(b1-6)[GlcNAc(b1-3)]Gal(b1-4)GlcNAc
# Outline: as §1
# [18] = target: GlcNAc(b1-3)GalNAc
# Outline: as §1
# [19] = target: GlcNAc(b1-3)Man
# Outline: as §1
# [20] = target: GlcNAc(b1-3)[GlcNAc(b1-4)][GlcNAc(b1-6)]GlcNAc
# Outline: as §1
# [21] = target: GlcNAc(b1-3)[GlcNAc(b1-6)]Gal(b1-4)GlcNAc
# Outline: as §1
# [22] = target: GlcNAc(b1-3)[GlcNAc(b1-6)]GalNAc
# Outline: as §1
# [23] = target: GlcNAc(b1-3)[GlcNAc(b1-6)]GlcNAc(b1-4)GlcNAc
# Outline: as §1
# [24] = target: GlcNAc(b1-4)Gal(b1-4)GlcNAc
# Outline: as §1
# [25] = target: GlcNAc(b1-4)GlcNAc
# Outline: as §1
# [26] = target: GlcNAc(b1-4)GlcNAc(b1-4)GlcNAc
# Outline: as §1
# [27] = target: GlcNAc(b1-4)GlcNAc(b1-4)GlcNAc(b1-4)GlcNAc(b1-4)GlcNAc
# Outline: as §1
# [28] = target: GlcNAc(b1-4)GlcNAc(b1-4)GlcNAc(b1-4)GlcNAc(b1-4)GlcNAc(b1-4)GlcNAc
# Outline: as §1
# [29] = target: GlcNAc(b1-4)[GlcNAc(b1-6)]GalNAc
# Outline: as §1
# [30] = target: GlcNAc(b1-6)Gal(b1-4)GlcNAc
# Outline: as §1
# [31] = target: GlcNAc(b1-6)GalNAc
# Outline: as §1
# [32] = target: GlcNAc6S(b1-3)Gal(b1-4)GlcNAc
# Outline: as §1
# [33] = target: Kdn(a2-3)Gal(b1-3)GalNAc
# Outline: as §1
# [34] = target: Kdn(a2-3)Gal(b1-3)GlcNAc
# Outline: as §1
# [35] = target: Kdn(a2-3)Gal(b1-4)Glc
# Outline: as §1
# [36] = target: Kdn(a2-3)Gal(b1-4)GlcNAc
# Outline: as §1
# [37] = target: Kdn(a2-3)Gal(b1-4)[Fuc(a1-3)]GlcNAc
# Outline: as §1
# [38] = target: Kdn(a2-6)Gal(b1-4)GlcNAc
# Outline: as §1
binder,measurement,setting,value
"UDA (Urtica dioica), P11218 (protein) MMMRFLSAVVIMSSAMAVGLVSAQRCGSQGGGGTCPALWCCSIWGWCGDSEPYCGRTCENKCWSGERSDHRCGAAVGNPPCGQDRCCSVHGWCGGGNDYCSGSKCQYRCSSSVRGPRVALSGNSTANSIGNVVVTEPLFDQMFSHRKDCPSQGFYSYHSFLVAAESFPAFGTIGDVATRKREVAAFLAHISQATSGERSDVENPHAWGLCHINTTTVTENDFCTSSDWPCAAGKKYSPRGPIQLTHNFNYGLAGQAIGEDLIQNPDLVEKDPIISFKTALWFWMSQHDNKPSCHDIVLNANSAANRIPNKGVIGNIISRAFGHDDFAVRSSSIGFYKRYCDMLGVSYGHDLKYWFDNTPSSEFQRIQMRVAA",glycan array binding signal (z-score),[1],-0.159
same,glycan array binding signal (z-score),[2],-0.098
same,glycan array binding signal (z-score),[3],-0.054
same,glycan array binding signal (z-score),[4],0.026
same,glycan array binding signal (z-score),[5],-0.176
same,glycan array binding signal (z-score),[6],-0.123
same,glycan array binding signal (z-score),[7],-0.03
same,glycan array binding signal (z-score),[8],-0.154
same,glycan array binding signal (z-score),[9],0.013
same,glycan array binding signal (z-score),[10],0.09
same,glycan array binding signal (z-score),[11],-0.085
same,glycan array binding signal (z-score),[12],-0.187
same,glycan array binding signal (z-score),[13],-0.182
same,glycan array binding signal (z-score),[14],-0.174
same,glycan array binding signal (z-score),[15],-0.175
same,glycan array binding signal (z-score),[16],-0.183
same,glycan array binding signal (z-score),[17],-0.098
same,glycan array binding signal (z-score),[18],-0.175
same,glycan array binding signal (z-score),[19],-0.17
same,glycan array binding signal (z-score),[20],-0.181
same,glycan array binding signal (z-score),[21],-0.178
same,glycan array binding signal (z-score),[22],-0.183
same,glycan array binding signal (z-score),[23],-0.248
same,glycan array binding signal (z-score),[24],0.062
same,glycan array binding signal (z-score),[25],-0.121
same,glycan array binding signal (z-score),[26],2.6
same,glycan array binding signal (z-score),[27],2.39
same,glycan array binding signal (z-score),[28],1.58
same,glycan array binding signal (z-score),[29],-0.189
same,glycan array binding signal (z-score),[30],-0.173
same,glycan array binding signal (z-score),[31],-0.18
same,glycan array binding signal (z-score),[32],0.041
same,glycan array binding signal (z-score),[33],-0.163
same,glycan array binding signal (z-score),[34],-0.19
same,glycan array binding signal (z-score),[35],-0.168
same,glycan array binding signal (z-score),[36],-0.023
same,glycan array binding signal (z-score),[37],-0.166
same,glycan array binding signal (z-score),[38],-0.171
